# Measured values reported in PubChem BioAssay AID504832 (National Center for Advancing Translational Sciences (NCATS), 2011).
# Screen size: about 310,000 compounds; about 18,000 (5.8%) were called active. Inconclusive means that the source gave no clear call. Such entries were picked first, then a sample of the others. Calls come from the whole dose curve; as a rule, active = well fitted inhibition curve with a large enough effect; inconclusive = small, poorly fitted or top-dose-only effect, or another doubt; inactive = no such curve, though single readings can be large or run the other way. Potencies of inconclusive entries are left out as doubtful fits.
# Assay: Primary qHTS for delayed death inhibitors of the malarial parasite plastid, 48 hour incubation
# Settings: P. falciparum luciferase growth in erythrocytes; series mostly up to 28.7 µM
# Outline: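 Parasite viability was followed by luminescence of a genomically integrated firefly luciferase. Cultures held 0.1% parasitemia at 2% hematocrit (final), incubated under 5% CO2 at 37 C.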
# Potency is the fitted concentration of half-maximal effect; tags give direction and shape of the fitted curve.
row,Compound,Potency
1,Cc1[nH]c(C)c(S(=O)(=O)NCc2ccc(N(C)C)cc2)c1C(=O)N1CCCC1,inactive
2,Cc1cc(C(=O)CCC(=O)N2CCN(c3ccccc3O)CC2)c(C)s1,"inconclusive [inhibitor, single point]"
3,COc1cc(CCC(=O)O)on1,"inconclusive [inhibitor, single point]"
4,COc1ccc(OC)c(N2C(=O)CC(C(C)c3ccccc3)C2=O)c1 (stereo not drawn),"inconclusive [inhibitor, full curve, poor fit]"
5,Cc1nnc(Sc2nc3c(c(=O)n(C)c(=O)n3C)n2Cc2ccc(Cl)cc2)s1,"inconclusive [inhibitor, partial curve, poor fit]"
6,Cc1ccc(S(=O)(=O)N(Cc2ccccc2F)C(=O)N2CCN(C)CC2)cc1,"inconclusive [inhibitor, partial curve, poor fit]"
7,COc1ccc(C(C(=O)NC2CCCC2)N(CCCO)C(=O)Cn2nnc(-c3ccc(C)o3)n2)cc1 (stereo not drawn),"inconclusive [inhibitor, partial curve]"
8,CC(C)CNC(=O)NC(=O)COC(=O)c1cc(F)cc(F)c1,inactive
9,CCOc1ccc(Cn2c3ccc(OC)cc3c3nc4ccccc4nc32)cc1OC,"inconclusive [inhibitor, single point]"
10,CC(C)CNC(=O)c1ccccc1NC(=O)c1ccccc1N(C)S(=O)(=O)c1ccccc1,"inconclusive [inhibitor, single point]"
11,CC(C)C(=O)N1CCC2(CC1)Oc1ccc(Cl)cc1C(=O)C21CC(c2ccccc2)=NO1 (stereo not drawn),"inconclusive [inhibitor, single point]"
12,Cc1cc2cc(C#N)c(NCCNC(=S)NCCCN3CCOCC3)nc2cc1C,active: 13.1 µM
13,COc1ccccc1N1CCN(C(=O)CSc2nnc(NC(=O)C3CCC3)s2)CC1,"inconclusive [inhibitor, single point]"
14,CCCCCc1cc(=O)oc2c(C(CCN3CCN(c4ccccc4)CC3)c3ccc4c(c3)OCO4)c(OC)cc(OC)c12 (stereo not drawn),active: 7.38 µM
15,Cc1ccc(C(=O)c2cn(Cc3ccc(Cl)cc3)c3nc(C)ccc3c2=O)cc1,"inconclusive [inhibitor, single point]"
16,CCOc1ccc(/C=C/[N+](=O)[O-])c2ccccc12,"inconclusive [inhibitor, single point]"
17,COc1cc(-c2nnc(SCc3cc(=O)oc4cc(O)c(O)cc34)o2)cc(OC)c1OC,"inconclusive [inhibitor, single point]"
18,Cc1ccc(CSc2nc3ccccc3c(=O)n2Cc2ccco2)cc1,active: 13.1 µM
19,CC(NCc1cccc(Cl)c1Cl)C(O)c1ccccc1 (stereo not drawn),active: 9.28 µM
20,COc1ccc(C2=CC(=O)C[C@H](c3ccc(Cl)cc3)C2)cc1,"inconclusive [inhibitor, single point]"
21,CC1CN(c2nc(-c3ccc(Br)cc3)nnc2-c2ccccc2)CC(C)N1 (stereo not drawn),"inconclusive [inhibitor, single point]"
22,COc1ccc(CCNC(=S)NC(=O)c2cccc(Cl)c2)cc1OC,"inconclusive [inhibitor, partial curve, poor fit]"
23,Fc1c(F)c(F)c(/C=N/NC(=S)Nc2cccnc2)c(F)c1F,"inconclusive [inhibitor, single point]"

row,Compound,Potency
1,O=C(C1CCN(Cc2ccccc2)CC1)N1CCCC1,inactive
2,CC1CN(CCCCOc2ccc(Cl)c3ccccc23)CC(C)O1 (stereo not drawn),"inconclusive [inhibitor, full curve, poor fit]"
3,CC(C)CN1C(=O)NC(NC(=O)c2ccco2)(C(F)(F)F)C1=O (stereo not drawn),inactive
4,O=C(COc1ccc(F)cc1)Nc1nc(-c2ccccn2)cs1,"inconclusive [inhibitor, single point]"
5,Oc1c(Br)cc(/C=N/n2c(-c3ccccc3)n[nH]c2=S)c(O)c1Br,inactive
6,CC(NC(=O)C1CCCN(S(=O)(=O)c2cccs2)C1)c1ccccc1 (stereo not drawn),"inconclusive [inhibitor, single point]"
7,S=C(Nc1ccccc1Cl)N1CCC(c2ccccc2)C1 (stereo not drawn),inactive
8,O=C(NCCCN1CCCCCC1)C1CC(=O)N(CCc2ccccc2)C1 (stereo not drawn),inactive
9,CCOC(=O)C(C)Sc1ccc2nnc(CCNS(=O)(=O)c3ccc(C)cc3)n2n1 (stereo not drawn),"inconclusive [inhibitor, single point]"
10,CCOc1ccc(NC(=O)CN(C)C(=O)CCCc2c[nH]c3ccccc23)cc1OCC,active: 10.4 µM
11,CCN(CC)C(C(=O)Nc1ccc(C(C)C)cc1)c1ccc2c(c1)OCO2 (stereo not drawn),active: 8.28 µM
12,S=c1nc[nH]c2c1ncn2C1CCCO1 (stereo not drawn),inactive
13,CC(C)C[C@@H](NC(=O)C1CCC(CNC(=O)[C@H](Cc2ccccc2)NC(=O)OC(C)(C)C)CC1)C(=O)O (stereo partly drawn),inactive
14,Cc1c(C(=O)NC(C)C2CC3CCC2C3)cccc1[N+](=O)[O-] (stereo not drawn),inactive
15,COc1ccccc1[C@@H]1C(c2cccc(Cl)c2)=NN(c2ccc(Br)cc2)[C@H]1C(=O)N1CCOC1=O,"inconclusive [inhibitor, partial curve]"
16,CN(C)CCCN1C(=O)c2oc3ccc(Cl)cc3c(=O)c2C1c1cccnc1 (stereo not drawn),"inconclusive [inhibitor, single point]"
17,CCOC(=O)C(C)(C)N(Cc1ccccc1C)S(=O)(=O)c1ccc(Cl)c([N+](=O)[O-])c1,"inconclusive [inhibitor, partial curve, poor fit]"
18,COc1cc(C(=O)NCCOc2ccccc2)cc(OC)c1OC,inactive
19,O=C(CN1CCOCC1)N/N=C/c1c(O)ccc2ccccc12,"inconclusive [inhibitor, partial curve, poor fit]"
20,COc1ccc(-c2cn3cccnc3n2)cc1NS(=O)(=O)c1ccccc1,"inconclusive [inhibitor, single point]"
21,O=C(NC1CCCCC1)c1ccc(OC2CCN(Cc3ccccn3)CC2)cc1,"inconclusive [inhibitor, partial curve, poor fit]"
22,CCOC(=O)c1csc(CCNC(=O)c2oc3c(Cl)cc(C)cc3c2C)n1,"inconclusive [inhibitor, single point]"
23,Cc1ccc(CN2C(=O)S/C(=C\c3ccccc3OCC(=O)O)C2=O)cc1,inactive

row,Compound,Potency
1,COc1ccc(-c2cc(C)no2)cc1S(=O)(=O)N(C)c1ccc(C)cc1,"inconclusive [inhibitor, single point]"
2,CC(C)Cn1c(N)c(C(=O)COC(=O)c2cc(C(F)(F)F)nc3ccccc23)c(=O)n(C)c1=O,"inconclusive [inhibitor, single point]"
3,Cc1ccccc1NC(=O)Cc1nc(COC(=O)Cc2c(F)cccc2Cl)cs1,"inconclusive [inhibitor, single point]"
4,O=C(Nc1ccc(C(=O)O)c(O)c1)c1ccccc1,"inconclusive [inhibitor, partial curve, poor fit]"
5,O=C(CCCC(=O)N(CC(=O)NC1CCCC1)Cc1ccccc1Cl)Nc1ccccn1,"inconclusive [inhibitor, partial curve, poor fit]"
6,COC(=O)c1cc(NC(=O)c2cc(-c3ccc(OC)cc3)oc2C(F)(F)F)ccc1N1CCOCC1,active: 8.28 µM
7,CCN(C(=O)Cn1c(=O)n(-c2cc(OC)c(OC)c(OC)c2)c(=O)c2ccccc21)c1cccc(C)c1,inactive
8,Cc1cc(OCC(=O)NC2CC2)c2c(C)cc(=O)oc2c1,inactive
9,C=CCOC(=O)C1=C(C)NC(C)=C(C(=O)OCC=C)C1c1ccc(C)o1,"inconclusive [inhibitor, single point]"
10,COc1cc(CCCN2C(N)=NC[C@H]2Cc2ccc(O)cc2)cc(OC)c1OC,active: 8.28 µM
11,CCOc1ccc(NC(=O)CCSc2nc3c(c(CC)c2C#N)C(=O)CC(C)(C)C3)cc1,inactive
12,CCCOc1ccc(/C=C/C(=O)NCc2ccccc2)cc1,"inconclusive [inhibitor, partial curve]"
13,COc1cc(C(=O)Nc2nc(-c3ccc(Cl)cc3)c(C)s2)ccc1OCC(=O)Nc1ccc(F)cc1,"inconclusive [inhibitor, single point]"
14,Cc1ccc2cc(/C=N/NC(=O)c3ccccc3O)c(Cl)nc2c1,inactive
15,COc1ccc(CNC(=S)Nc2cc(C)cc(C)c2)cc1,"inconclusive [inhibitor, single point]"
16,Cc1ccc(Nc2nc(C)c(CCC(C)C)c(=O)[nH]2)cc1,"inconclusive [inhibitor, single point]"
17,CCO[C@H]1OC(C(=O)N2CCN(Cc3ccccc3)CC2)=C[C@@H](c2ccccc2)[C@@H]1CCCO,"inconclusive [inhibitor, full curve, poor fit]"
18,CSc1nc(-c2ccccc2)cn1-c1ccc(NC(C)=O)cc1,inactive
19,CC(C)C(NC(=O)c1ccco1)C(=O)NC1CCCCCC1 (stereo not drawn),inactive
20,COc1ccccc1N1CCN(C(=O)CCCN2C(=O)c3cccc4cccc(c34)C2=O)CC1,"inconclusive [inhibitor, partial curve]"
21,COc1ccc(-c2nnc(SCC(=O)NCCC(C)C)nc2-c2ccc(OC)c(OC)c2)cc1OC,"inconclusive [inhibitor, full curve]"
22,CCOc1cccc2sc(NN)nc12,"inconclusive [inhibitor, full curve, poor fit]"
